In the assay the test system is NCI-H322M lung. Description: DTP human tumour cell line panel, 48 h.

Molecules are shown by their SMILES.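 Tested at 5 concentrations; 48 h exposure; 96-well plates; endpoints linearly interpolated, else capped at highest concentration. Abbreviation: GI50, concentration required for 50% inhibition of growth. At the TGI there is no net growth.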

Data on 1 compound can be found in PubChem BioAssay (NCI).

The term GI50 denotes the concentration that inhibits growth by half. As usually defined, the TGI is the concentration at which net growth stops.

`COc1cc(/C=C/C(=O)c2ccccc2)ccc1Oc1nc(Nc2ccc(F)cc2)nc(N(C)C)n1`: the GI50 was 28.7 µM and the TGI is over 100 µM.
